The supplement of paper PMC11417369
The other results are listed elsewhere or left out.

system: PfHDP1 homeodomain (GST-tagged); experiment: gcPBM binding intensity (ln(normalized median fluorescence intensity)); higher = stronger DNA binding
How it was run: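 The binding buffer was 1× PBS containing 1% milk, 0.2 mg/ml BSA, 0.5% salmon testes DNA and 0.03% Triton X-100. In it, GST-tagged P. falciparum DNA-binding domains expressed in E. coli were applied for 1 h to an Agilent 4 × 180k array of primer-extended double-stranded 36-bp intergenic genomic probes plus negative controls. Binding intensity, read with Alexa488 anti-GST antibody and a 488 nm scan, is the highest Masliner-normalised natural-log median intensity across replicate spots of either probe orientation.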

Question: “GTACATTATTTATATACACACAAAGAAAAATATACA [CACACA_site3452]” was tested. Which “gcPBM binding intensity (ln)” value did it give?
Answer: The value was 6.78.

Question: “TAAAGCATATTATAAACACACACTGTATAAAGATAT [CACACA_site296]” was tested. Which “gcPBM binding intensity (ln)” value did it give?
Answer: The value was 6.7.

Question: For “TTGTTTTTAATATCGGTGCAATGGAAAGAAAAGAAG [GTGCAC_site9494]”, which “gcPBM binding intensity (ln)” value is on record?
Answer: Its value is 9.94.

Question: “TATACATATGAAAATACACACATACATACAGATATA [CACACA_site5002]” was tested. Which “gcPBM binding intensity (ln)” value did it give?
Answer: The value was 6.64.

Question: For “AAAAAAAATATAATATGTACATATCTATATATCAAC [XGTACX_site4881]”, which “gcPBM binding intensity (ln)” value is on record?
Answer: Its value is 6.58.

Question: How did the “gcPBM binding intensity (ln)” value turn out when “TTTTTATATGCGTATTGTACATTATACATATATATA [XGTACX_site6786]” was run?
Answer: Its value is 6.51.

Question: “CCTTTTTTGTTTTATGCACACCATATAACCAAGGCT [CACACA_site7893]” was tested. Which “gcPBM binding intensity (ln)” value did it give?
Answer: Its value is 10.3.

Question: “TAAATGTCCTTATTTGCACACACACCCATAAGAAAT [CACACA_site3185]” was tested. Which “gcPBM binding intensity (ln)” value did it give?
Answer: The value was 10.4.

Question: For “TATATATAAAAATATACACACACAAATGTATATATA [CACACA_site7956]”, which “gcPBM binding intensity (ln)” value is on record?
Answer: Its value is 6.36.

Question: For “ATGTAATGAAACATTGCACACATATAATAATATAAT [CACACA_site8402]”, which “gcPBM binding intensity (ln)” value is on record?
Answer: Its value is 9.81.

Question: With “AAAAAAAAAAAAAAGCGTACAAATAAAATATATTTA [XGTACX_site7195]” as the sequence, how does the “gcPBM binding intensity (ln)” value read?
Answer: The value was 6.3.

Question: How did the “gcPBM binding intensity (ln)” value turn out when “AATTAAATTACTTATACACACATAAAATGGGTGTAT [CACACA_site4703]” was run?
Answer: Its value is 6.48.

Question: Which “gcPBM binding intensity (ln)” value does the source give for “CGTATATATAAATACACACACATATATATCTGTAAA [CACACA_site4272]” here?
Answer: The value was 6.74.

Question: With “TTAATTTATTTATGCACACATATATAATTACCCATA [CACACA_site682]” as the sequence, how does the “gcPBM binding intensity (ln)” value read?
Answer: The value was 10.7.

Question: How did the “gcPBM binding intensity (ln)” value turn out when “TTTTCTCTCAAAAAATGTACATAATATATATATTTT [XGTACX_site4861]” was run?
Answer: Its value is 6.98.

Question: “AGAATATCAAAATAAAGTACATTTATTATATATATG [XGTACX_site7100]” was tested. Which “gcPBM binding intensity (ln)” value did it give?
Answer: Its value is 6.15.

Question: “AAAAAAAAAAAACATACACACATACATACCTATATA [CACACA_site6575]” was tested. Which “gcPBM binding intensity (ln)” value did it give?
Answer: The value was 6.44.

Question: “TTTTTTTTTAAGATGAAGATCAATATATAAATATAT [CACACA_negctrl_site1538]” was tested. Which “gcPBM binding intensity (ln)” value did it give?
Answer: Its value is 6.06.

Question: “ATTCTTATAACAAGAAGTACAAATATATGTATATAT [XGTACX_site4528]” was tested. Which “gcPBM binding intensity (ln)” value did it give?
Answer: The value was 6.45.

Question: Which “gcPBM binding intensity (ln)” value does the source give for “AAACATAAGAAACACACACACATATATATATATATA [CACACA_site3642]” here?
Answer: The value was 9.3.

Question: With “ATGATGTGCAAGAGTAGTACACAATTTTGGGTTTAT [XGTACX_site501]” as the sequence, how does the “gcPBM binding intensity (ln)” value read?
Answer: The value was 9.42.

Question: Which “gcPBM binding intensity (ln)” value does the source give for “AACATCAATTTATTTTCTTACATTATACGATTCATG [CACACA_negctrl_site1300]” here?
Answer: The value was 6.51.

Question: With “TAATTATGCCAACACACACACACACCCAACTAAAAA [CACACA_site8823]” as the sequence, how does the “gcPBM binding intensity (ln)” value read?
Answer: Its value is 6.96.

Question: How did the “gcPBM binding intensity (ln)” value turn out when “AAAAAAAAATCAAAATGTACTTATTTTTATAATAAT [XGTACX_site4712]” was run?
Answer: Its value is 6.31.

Question: GTGGTTGTAATGGTGGTGCATATTGTATATTATGTT was tested. Which “gcPBM binding intensity (ln)” value did it give?
Answer: Its value is 10.2.

Question: “TTTCTATATCTTTCAACACACAAATTTTTTTTTCCA [CACACA_site108]” was tested. Which “gcPBM binding intensity (ln)” value did it give?
Answer: Its value is 6.46.

Question: With “ACATACATACCCCCACGTACGTACCGAAACACCACC [XGTACX_site1982]” as the sequence, how does the “gcPBM binding intensity (ln)” value read?
Answer: The value was 7.32.

Question: For “AATTTTATATATATATGTACATATTTATATGCTTAT [XGTACX_site8180]”, which “gcPBM binding intensity (ln)” value is on record?
Answer: The value was 6.75.

Question: Which “gcPBM binding intensity (ln)” value does the source give for “AATATAAGTGTACATACACACTTTACAATATCATAT [CACACA_site5634]” here?
Answer: The value was 6.49.

Question: How did the “gcPBM binding intensity (ln)” value turn out when “CAAAGAACTTATAGGGTGCTTTACTTATAAGTAAAT [GTGCAC_site9579]” was run?
Answer: The value was 6.12.

Question: “ATATAAAGTATGTTAGTGCACTTTTTTTTTTTTTTT [GTGCAC_site9419]” was tested. Which “gcPBM binding intensity (ln)” value did it give?
Answer: Its value is 10.4.

Question: For “TCATAGGAGAACTTTTGTACAGATTTTTCTTTTTTT [XGTACX_site2853]”, which “gcPBM binding intensity (ln)” value is on record?
Answer: Its value is 6.19.

Question: “GTAATACACATATAATGTACTCATAAATATATTTAT [XGTACX_site4041]” was tested. Which “gcPBM binding intensity (ln)” value did it give?
Answer: The value was 7.28.

Question: “ATGTTAACTAAATGTACACACCTATGTTGATGTAAC [CACACA_site5073]” was tested. Which “gcPBM binding intensity (ln)” value did it give?
Answer: The value was 6.69.

Question: “AAAGTTTAAATGAGAAGTACAAATTTTTGTTTTTAT [XGTACX_site1844]” was tested. Which “gcPBM binding intensity (ln)” value did it give?
Answer: Its value is 6.1.

Question: For “TATATATATAAAATATGTACATAAAATTATTTATTT [XGTACX_site7666]”, which “gcPBM binding intensity (ln)” value is on record?
Answer: Its value is 6.88.

Question: “AATAATATATATATATATATATATAGATATGTATAT [GTGCAC_negctrl_site653]” was tested. Which “gcPBM binding intensity (ln)” value did it give?
Answer: Its value is 7.08.

Question: “AGCAAAAATTAAATAAATAAATATATATATATATAT [TGCATGCA_negctrl_site449]” was tested. Which “gcPBM binding intensity (ln)” value did it give?
Answer: The value was 9.15.

Question: “ATATTAATAATATATACACACATAAGTATTGTATAT [CACACA_site4095]” was tested. Which “gcPBM binding intensity (ln)” value did it give?
Answer: The value was 6.46.

Question: “GCAACATTCTAAGACACACACACACCCATATATATA [CACACA_site1053]” was tested. Which “gcPBM binding intensity (ln)” value did it give?
Answer: The value was 7.02.

Question: Which “gcPBM binding intensity (ln)” value does the source give for “AATGATGTCATAGGGGGTACACATAAATGTGAATGT [XGTACX_site6745]” here?
Answer: Its value is 6.92.

Question: “TTACTACTATATTATACACACATATATATATATATA [CACACA_site2621]” was tested. Which “gcPBM binding intensity (ln)” value did it give?
Answer: Its value is 9.34.

Question: “TTAAAAGAAAAAATATGTACATATATTATATATATC [XGTACX_site7009]” was tested. Which “gcPBM binding intensity (ln)” value did it give?
Answer: Its value is 6.51.

Question: For “TGTGAATAAATAAGCACACATAAACACATATATAAA [CACACA_site6114]”, which “gcPBM binding intensity (ln)” value is on record?
Answer: The value was 6.89.

Question: For “TTTATTTATGTAGATACACACCCATGTTATATGGAG [CACACA_site9144]”, which “gcPBM binding intensity (ln)” value is on record?
Answer: Its value is 6.43.

Question: Which “gcPBM binding intensity (ln)” value does the source give for “TTCTAATATTTTTGCACACTAAACAATAAATTTCCT [CACACA_site3944]” here?
Answer: The value was 10.1.

Question: How did the “gcPBM binding intensity (ln)” value turn out when “TATACATAGAAACACACACACATATATATATATATA [CACACA_site2248]” was run?
Answer: The value was 9.33.

Question: With “GTTTATTCTTTTTATACACACCTTATTTGATTAACA [CACACA_site4567]” as the sequence, how does the “gcPBM binding intensity (ln)” value read?
Answer: The value was 6.93.

Question: “AATATTCAATATATATATATATATAATATTAATATA [GTGCAC_negctrl_site571]” was tested. Which “gcPBM binding intensity (ln)” value did it give?
Answer: The value was 6.4.

Question: With “TAATACCATAACAAGTGTACATAAATAATTATTGTA [XGTACX_site4949]” as the sequence, how does the “gcPBM binding intensity (ln)” value read?
Answer: Its value is 6.86.

Question: With “AAGGATTTTTTATACACACACTAACTAATGTATATA [CACACA_site7163]” as the sequence, how does the “gcPBM binding intensity (ln)” value read?
Answer: Its value is 6.54.

Question: Which “gcPBM binding intensity (ln)” value does the source give for “ATATTTTATTTAATTACACACAATATTGCAATTTGT [CACACA_site669]” here?
Answer: Its value is 8.74.

Question: “TATATTACTTTGTGTTGTACGGAAATATATATATAT [XGTACX_site4309]” was tested. Which “gcPBM binding intensity (ln)” value did it give?
Answer: The value was 8.93.

Question: For “TCTTCTAATTTACCTACACACAGGAGATATATAAAT [CACACA_site6276]”, which “gcPBM binding intensity (ln)” value is on record?
Answer: Its value is 6.74.

Question: For TAATTAATTTATTAGTTGCACTGTACCATTAGAGTA, which “gcPBM binding intensity (ln)” value is on record?
Answer: Its value is 7.85.

Question: With “GTTCATAAATTAAACACACACACACCCCTGGATACC [CACACA_site3331]” as the sequence, how does the “gcPBM binding intensity (ln)” value read?
Answer: The value was 7.41.

Question: “TATATATATATATATTGTACAAAATATTTATATGTT [XGTACX_site436]” was tested. Which “gcPBM binding intensity (ln)” value did it give?
Answer: The value was 9.39.
